How the values were obtained:
Experiment in all cases: peptide microarray
peptide 103 (human) = target: peptide 103 (human)
peptide 105 (human) = target: peptide 105 (human)
peptide 106 (human) = target: peptide 106 (human)
peptide 107 (human) = target: peptide 107 (human)
peptide 108 (human) = target: peptide 108 (human)
peptide 109 (human) = target: peptide 109 (human)
peptide 11 (human) = target: peptide 11 (human)
peptide 111 (human) = target: peptide 111 (human)
peptide 113 (human) = target: peptide 113 (human)
peptide 116 (human) = target: peptide 116 (human)
peptide 117 (human) = target: peptide 117 (human)
peptide 119 (human) = target: peptide 119 (human)
peptide 12 (human) = target: peptide 12 (human)
peptide 123 (human) = target: peptide 123 (human)
peptide 124 (human) = target: peptide 124 (human)
peptide 126 (human) = target: peptide 126 (human)
peptide 14 (human) = target: peptide 14 (human)
peptide 18 (human) = target: peptide 18 (human)
peptide 2 (human) = target: peptide 2 (human)
peptide 20 (human) = target: peptide 20 (human)
peptide 24 (human) = target: peptide 24 (human)
peptide 25 (human) = target: peptide 25 (human)
peptide 26 (human) = target: peptide 26 (human)
peptide 29 (human) = target: peptide 29 (human)
peptide 31 (human) = target: peptide 31 (human)
peptide 32 (human) = target: peptide 32 (human)
peptide 34 (human) = target: peptide 34 (human)
peptide 37 (human) = target: peptide 37 (human)
peptide 40 (human) = target: peptide 40 (human)
peptide 41 (human) = target: peptide 41 (human)
peptide 42 (human) = target: peptide 42 (human)
peptide 46 (human) = target: peptide 46 (human)
peptide 47 (human) = target: peptide 47 (human)
peptide 48 (human) = target: peptide 48 (human)
peptide 49 (human) = target: peptide 49 (human)
peptide 5 (human) = target: peptide 5 (human)
peptide 51 (human) = target: peptide 51 (human)
peptide 54 (human) = target: peptide 54 (human)
peptide 55 (human) = target: peptide 55 (human)
peptide 56 (human) = target: peptide 56 (human)
peptide 58 (human) = target: peptide 58 (human)
peptide 59 (human) = target: peptide 59 (human)
peptide 6 (human) = target: peptide 6 (human)
peptide 61 (human) = target: peptide 61 (human)
peptide 65 (human) = target: peptide 65 (human)
peptide 7 (human) = target: peptide 7 (human)
peptide 70 (human) = target: peptide 70 (human)
peptide 72 (human) = target: peptide 72 (human)
peptide 75 (human) = target: peptide 75 (human)
peptide 77 (human) = target: peptide 77 (human)
peptide 78 (human) = target: peptide 78 (human)
peptide 79 (human) = target: peptide 79 (human)
peptide 8 (human) = target: peptide 8 (human)
peptide 80 (human) = target: peptide 80 (human)
peptide 81 (human) = target: peptide 81 (human)
peptide 83 (human) = target: peptide 83 (human)
peptide 87 (human) = target: peptide 87 (human)
peptide 88 (human) = target: peptide 88 (human)
peptide 9 (human) = target: peptide 9 (human)
peptide 90 (human) = target: peptide 90 (human)
peptide 94 (human) = target: peptide 94 (human)
peptide 96 (human) = target: peptide 96 (human)

B1: rhuMAb 411 (antibody, human IgG1, kappa)
heavy: EVQLVESGAGVKQPGGTLRLTCTASGFSLTTYGVHWVRQAPGKGLEWVGVIWGDGRTDYDAAFMSRVTISKDTSKSTVYLQMNSLRAEDTAVYYCMRNRHDWFDYWGQGTTVTVSS[letters of human IgG1 constant region left out]
light: DILLTQSPSSLSATPGERATITCRASQGIRNNLNWYQQKPGQAPRLLIYYSSNLQSGVPSRFSGSGSGTDFTLTISRLQPEDVAAYYCQQSIKLPFTFGSGTKVEIKRTVAAPSVFIFPPSDEQLKSGTASVVCLLNNFYPREAKVQWKVDNALQSGNSQESVTEQDSKDSTYSLSSTLTLSKADYEKHKVYACEVTHQGLSSPVTKSFNRGEC
Peptide 103 (human)
  Mean Signal Value: 0
Peptide 105 (human)
  Mean Signal Value: 0
Peptide 106 (human)
  Mean Signal Value: 0.245
Peptide 107 (human)
  Mean Signal Value: 10.6
Peptide 108 (human)
  Mean Signal Value: 1.33
Peptide 109 (human)
  Mean Signal Value: 0
Peptide 11 (human)
  Mean Signal Value: 5.78
Peptide 111 (human)
  Mean Signal Value: 0
Peptide 113 (human)
  Mean Signal Value: 0.0288
Peptide 116 (human)
  Mean Signal Value: 0.0385
Peptide 117 (human)
  Mean Signal Value: 0.00962
Peptide 119 (human)
  Mean Signal Value: 0.024
Peptide 12 (human)
  Mean Signal Value: 0
Peptide 123 (human)
  Mean Signal Value: 0.438
Peptide 124 (human)
  Mean Signal Value: 12.7
Peptide 126 (human)
  Mean Signal Value: 0.0337
Peptide 14 (human)
  Mean Signal Value: 0.00962
Peptide 18 (human)
  Mean Signal Value: 0
Peptide 2 (human)
  Mean Signal Value: 16.5
Peptide 20 (human)
  Mean Signal Value: 0.0577
Peptide 24 (human)
  Mean Signal Value: 0.00962
Peptide 25 (human)
  Mean Signal Value: 0
Peptide 26 (human)
  Mean Signal Value: 0.0337
Peptide 29 (human)
  Mean Signal Value: 2.16
Peptide 31 (human)
  Mean Signal Value: 2.33
Peptide 32 (human)
  Mean Signal Value: 0.0192
Peptide 34 (human)
  Mean Signal Value: 15.7
Peptide 37 (human)
  Mean Signal Value: 98.2
Peptide 40 (human)
  Mean Signal Value: 32.2
Peptide 41 (human)
  Mean Signal Value: 0.0673
Peptide 42 (human)
  Mean Signal Value: 0
Peptide 46 (human)
  Mean Signal Value: 0
Peptide 47 (human)
  Mean Signal Value: 0
Peptide 48 (human)
  Mean Signal Value: 12.1
Peptide 49 (human)
  Mean Signal Value: 0.962
Peptide 5 (human)
  Mean Signal Value: 43.1
Peptide 51 (human)
  Mean Signal Value: 0.856
Peptide 54 (human)
  Mean Signal Value: 13
Peptide 55 (human)
  Mean Signal Value: 124
Peptide 56 (human)
  Mean Signal Value: 11.7
Peptide 58 (human)
  Mean Signal Value: 33.8
Peptide 59 (human)
  Mean Signal Value: 0.683
Peptide 6 (human)
  Mean Signal Value: 97.5
Peptide 61 (human)
  Mean Signal Value: 0.0385
Peptide 65 (human)
  Mean Signal Value: 40.8
Peptide 7 (human)
  Mean Signal Value: 20.6
Peptide 70 (human)
  Mean Signal Value: 1
Peptide 72 (human)
  Mean Signal Value: 10.1
Peptide 75 (human)
  Mean Signal Value: 9.38
Peptide 77 (human)
  Mean Signal Value: 13.7
Peptide 78 (human)
  Mean Signal Value: 7.86
Peptide 79 (human)
  Mean Signal Value: 96.4
Peptide 8 (human)
  Mean Signal Value: 0.736
Peptide 80 (human)
  Mean Signal Value: 17.7
Peptide 81 (human)
  Mean Signal Value: 35.4
Peptide 83 (human)
  Mean Signal Value: 3.64
Peptide 87 (human)
  Mean Signal Value: 0.0288
Peptide 88 (human)
  Mean Signal Value: 0
Peptide 9 (human)
  Mean Signal Value: 0.0673
Peptide 90 (human)
  Mean Signal Value: 0
Peptide 94 (human)
  Mean Signal Value: 0.0433
Peptide 96 (human)
  Mean Signal Value: 0.0144

Reference: patent publication US20090136523A1
